{"source": "PubChem BioAssay AID588453", "about": "(National Center for Advancing Translational Sciences (NCATS), 2011)", "note": "About 4,000 (1%) of roughly 390,000 compounds were called active. The inconclusive results got no clear call from the source; some entries with a clear call stand among them for comparison. Calls follow the shape of the dose curve; as a rule, active = well fitted inhibition curve with a large enough effect; inconclusive = small, poorly fitted or top-dose-only effect; inactive = no such curve, though single readings can be large or run the other way. A potency beside an inconclusive call is a rough fit, not a confirmed value. % is scaled to controls: 0 for no effect and ±100 for the full control effect; potency is read from the fitted curve at half-maximal effect; tags tell the direction and shape of the fitted curve.", "data": [{"biological_target": "Thioredoxin reductase 1, cytoplasmic (Rattus norvegicus) (UniProt O89049)", "sequence (O89049 whole entry, looked up)": "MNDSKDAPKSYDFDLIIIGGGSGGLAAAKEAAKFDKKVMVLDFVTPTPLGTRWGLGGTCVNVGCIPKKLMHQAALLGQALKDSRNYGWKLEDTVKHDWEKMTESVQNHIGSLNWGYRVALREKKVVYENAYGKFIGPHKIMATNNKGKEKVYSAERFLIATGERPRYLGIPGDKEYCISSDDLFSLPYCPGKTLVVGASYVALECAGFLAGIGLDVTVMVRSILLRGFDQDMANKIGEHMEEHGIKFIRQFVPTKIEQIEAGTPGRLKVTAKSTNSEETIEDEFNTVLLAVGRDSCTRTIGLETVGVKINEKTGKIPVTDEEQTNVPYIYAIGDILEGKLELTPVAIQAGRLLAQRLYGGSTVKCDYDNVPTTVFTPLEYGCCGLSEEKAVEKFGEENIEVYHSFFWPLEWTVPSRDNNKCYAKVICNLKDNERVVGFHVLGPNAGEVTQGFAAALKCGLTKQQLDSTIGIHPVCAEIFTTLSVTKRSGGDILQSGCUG", "assay": "qHTS Assay for Inhibitors of Mammalian Selenoprotein Thioredoxin Reductase 1 (TrxR1): qHTS; also: nearly all actives have a fitted effect of over 65% in size", "conditions": "recombinant rTrxR1, NADPH fluorescence consumption, selenite substrate; series mostly up to 114 µM", "in_short": "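Rat TrxR1 (90 nM in the dispensed reagent) was pre-reduced with 400 uM NADPH for 5 min at room temperature, then incubated with compound for 15 min. After 400 uM selenite was added, NADPH fluorescence (Ex 340/Em 450 nm) was followed for 8 min.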", "values": [{"smiles": "COc1cc2c(cc1OC)C(c1ccccc1F)OC(=O)C2", "note": "(stereo not drawn)", "Potency": "inconclusive: 79.4 µM [inhibitor, single point]"}, {"smiles": "O=C1c2cccc3c([N+](=O)[O-])ccc(c23)C(=O)N1Cc1cccnc1", "Potency": "inconclusive: 22.4 µM [inhibitor, partial curve]"}, {"smiles": "C=CCN1CN(S(=O)(=O)c2cccc(Cl)c2)c2nc3ccccc3nc21", "Potency": "inconclusive: 50.1 µM [inhibitor, partial curve, poor fit]"}, {"smiles": "CCCC(CCC(=O)OC)(C(=O)OCC)c1csc(N)n1", "note": "(stereo not drawn)", "Potency": "inconclusive: 39.8 µM [inhibitor, single point]"}, {"smiles": "Cc1ccc(NC(=S)Nc2cccnc2)c(S(=O)(=O)N2CCCCC2)c1", "Potency": "inconclusive: 79.4 µM [inhibitor, single point]"}, {"smiles": "CCOCCCNC(=O)C(NC(=O)c1ccc(NC(C)=O)cc1)c1ccccc1", "note": "(stereo not drawn)", "Potency": "inactive"}, {"smiles": "O=S(=O)(c1cccc(-c2nnc(SCc3nc4ccccc4s3)o2)c1)N1CCOCC1", "activity change, negative = inhibition": "inactive: -32.2% [at 11.4 µM]"}, {"smiles": "Cc1ccc(C)c2[nH]c(=O)c(CN(CC3CCCO3)C(=S)NCc3ccco3)cc12", "note": "(stereo not drawn)", "Potency": "inconclusive: 50.1 µM [inhibitor, partial curve, poor fit]"}, {"smiles": "Cc1ccc(-c2ccc(C(=O)Nc3cccc(F)c3)o2)c2ccccc12", "Potency": "inconclusive: 22.4 µM [inhibitor, partial curve]"}, {"smiles": "Cc1ccc(-c2nc3ccccc3[nH]2)cc1NC(=O)/C=C/c1ccco1", "Potency": "inconclusive: 3.16 µM [inhibitor, full curve]"}, {"smiles": "COCCNC(=O)Cn1cc(S(=O)(=O)Cc2ccccc2Cl)c2ccccc21", "Potency": "inactive"}, {"smiles": "Cc1cc(C(=O)N/N=C/c2ccc([N+](=O)[O-])s2)n[nH]1", "Potency": "inconclusive: 56.2 µM [inhibitor, partial curve, poor fit]"}, {"smiles": "COc1cc(/C=N/c2oc(C)c(C)c2C#N)cc(Br)c1O", "Potency": "inconclusive: 79.4 µM [inhibitor, partial curve, poor fit]"}, {"smiles": "O=C(O)COc1c(-c2ccco2)oc2ccccc2c1=O", "Potency": "inconclusive: 31.6 µM [inhibitor, partial curve, poor fit]"}, {"smiles": "CC(C)c1ccc(CCNC(=O)c2ccc([N+](=O)[O-])cc2)cc1", "Potency": "inactive"}, {"smiles": "CCOc1ccc(C2c3c(-c4ccc(C)cc4)n[nH]c3C(=O)N2c2ccc(Cl)cc2)cc1", "note": "(stereo not drawn)", "Potency": "inactive"}, {"smiles": "NC(=O)c1ccccc1NCC(=O)c1ccc(Cl)cc1", "Potency": "inactive"}, {"smiles": "CC(C(=O)N1CCN(C(=O)c2ccco2)CC1)n1sc2ccccc2c1=O", "note": "(stereo not drawn)", "Potency": "inconclusive: 79.4 µM [inhibitor, single point]"}, {"smiles": "O=S(=O)(c1ccccc1F)N1CCN(Cc2cc3c(cc2O)OCO3)CC1", "Potency": "inconclusive: 2.24 µM [inhibitor, full curve]"}, {"smiles": "COc1ccc2oc(=O)c(-c3csc(/C(C#N)=C/c4ccc(F)cc4)n3)cc2c1", "Potency": "inconclusive: 89.1 µM [inhibitor, single point]"}, {"smiles": "O=c1c2c3nc4ccccc4nc3n(Cc3ccccc3)c2ncn1Cc1ccco1", "Potency": "active: 17.8 µM"}, {"smiles": "CCc1ccccc1NC(=O)CCc1c(C)nc2cc(-c3ccccc3)nn2c1C", "Potency": "inconclusive: 44.7 µM [inhibitor, partial curve, poor fit]"}, {"smiles": "CCCCn1c(CN2CCN(C)CC2)nc2ccccc21", "Potency": "inactive"}, {"smiles": "CCn1cc(C(=O)NCCC(C)C)c(=O)c2cc(S(=O)(=O)N3CCCCC3)ccc21", "Potency": "inconclusive: 89.1 µM [inhibitor, single point]"}, {"smiles": "CCOC(=O)C(/C=C(\\C#N)C(=O)OCC)=C(/N)N1CCN(c2ccc(OC)cc2)CC1", "Potency": "inconclusive: 50.1 µM [inhibitor, partial curve]"}, {"smiles": "CSc1ccccc1NC(=O)CN1c2ccccc2CC1C", "note": "(stereo not drawn)", "Potency": "inconclusive: 79.4 µM [inhibitor, single point]"}, {"smiles": "CS(=O)(=O)c1cc([N+](=O)[O-])c(Sc2nc3ccccc3[nH]2)c([N+](=O)[O-])c1", "Potency": "active: 1.26 µM"}, {"smiles": "CC1CCCN(CCC(=O)c2ccc(Br)cc2)C1", "note": "(stereo not drawn)", "Potency": "inconclusive: 0.251 µM [inhibitor, full curve, poor fit]"}, {"smiles": "CCOC(=O)Nc1ccc2c(c1)N(C(=O)CCCl)c1ccccc1[S@]2=O", "Potency": "active: 50.1 µM"}, {"smiles": "Cc1ccc2nc3c(cc2c1)CN(Cc1ccco1)C(=NCC1CCCO1)S3", "note": "(stereo not drawn)", "Potency": "inactive"}, {"smiles": "O=S(=O)(Nc1nc2ccccc2nc1Cl)c1ccccc1C(F)(F)F", "Potency": "inconclusive: 79.4 µM [inhibitor, partial curve, poor fit]"}, {"smiles": "Cc1ccccc1NC(=O)Cn1c(=O)n(CCCCCC(=O)NCc2ccc3c(c2)OCO3)c(=O)c2sccc21", "Potency": "inactive"}, {"smiles": "O=C(/C=C/c1ccccc1)Nc1ncn[nH]1", "Potency": "inconclusive: 25.1 µM [inhibitor, single point]"}, {"smiles": "COc1cc(/C=N/Nc2ccc3ccccc3c2)ccc1OC(=O)c1ccco1", "Potency": "inconclusive: 79.4 µM [inhibitor, single point]"}, {"smiles": "CCOC(=O)Nc1ccc2c(c1)N(C(=O)CCN1CCOCC1)c1ccccc1S2=O", "note": "(stereo not drawn)", "Potency": "active: 31.6 µM"}, {"smiles": "CC1=NN(Cc2ccccc2)C(=O)C1C(c1ccccc1)C(C#N)C#N", "note": "(stereo not drawn)", "Potency": "inconclusive: 44.7 µM [inhibitor, single point]"}, {"smiles": "CCNC(=S)NNC(=O)CCn1cc(C)cn1", "Potency": "inactive"}, {"smiles": "CCOc1ccc(CCNC(=O)CSCc2nc(-c3cccc(C)c3)oc2C)cc1OCC", "Potency": "inactive"}, {"smiles": "O=C(O)c1cc(=O)[nH]c2ccccc12", "Potency": "inactive"}, {"smiles": "O=C(Cn1c(=O)c2cccn2c2ccc(F)cc21)NCc1cccc(Cl)c1", "Potency": "inactive"}, {"smiles": "O=C(OCc1ccc2c(c1)OCO2)c1ccc(S(=O)(=O)N2CCCC2)cc1", "Potency": "inactive"}, {"smiles": "Fc1cc(F)cc(-c2c(-c3ccccc3)ncc3ccc(F)cc23)c1", "Potency": "inconclusive: 28.2 µM [inhibitor, full curve]"}, {"smiles": "CC(NC(=S)Nc1ccc([N+](=O)[O-])cc1)c1ccncc1", "note": "(stereo not drawn)", "Potency": "inconclusive: 89.1 µM [inhibitor, single point]"}, {"smiles": "CCOC(=O)N1CCN(Cc2nc3ccc([N+](=O)[O-])cc3c(=O)n2-c2cccc(OC)c2)CC1", "Potency": "inconclusive: 35.5 µM [inhibitor, partial curve, poor fit]"}, {"smiles": "Cc1ccnc(NC(c2ccccn2)c2c(C)[nH]c3ccccc23)c1", "note": "(stereo not drawn)", "Potency": "inconclusive: 3.98 µM [inhibitor, partial curve, poor fit]"}, {"smiles": "Cc1ccc(S(=O)(=O)N2CCOCC2)cc1C(=O)N1CCN(Cc2ccccc2)CC1", "Potency": "inconclusive: 89.1 µM [inhibitor, single point]"}, {"smiles": "COc1cc2c(cc1OC)C(c1ccc(C(F)(F)F)cc1)CC(=O)N2", "note": "(stereo not drawn)", "Potency": "inconclusive: 89.1 µM [inhibitor, single point]"}, {"smiles": "Cc1[nH]c2ccccc2c1C1C(c2ccccc2)=NN=C(C(C)C)N1O", "note": "(stereo not drawn)", "Potency": "active: 44.7 µM"}, {"smiles": "CCOC(=O)c1c(NC(=S)NNS(=O)(=O)c2ccc(Br)cc2)sc2c1CCCCC2", "Potency": "inconclusive: 44.7 µM [inhibitor, partial curve]"}, {"smiles": "Cc1cc(NC(=O)CCS(=O)(=O)c2ccc(F)cc2)no1", "Potency": "active: 44.7 µM"}, {"smiles": "CCN(CC)C(=O)COc1ccc(/C(C)=N/Nc2ncc(Cl)cc2Cl)cc1", "Potency": "inactive"}, {"smiles": "OCCN(CCO)c1nc(N2CCCCC2)c2nc(N(CCO)CCO)nc(N3CCCCC3)c2n1", "Potency": "inconclusive: 42.3 µM [inhibitor, partial curve, poor fit]"}, {"smiles": "COc1ccc(/C=C/C(=O)c2ccc(OC)cc2OC)c(OC)c1", "Potency": "inactive"}, {"smiles": "O=[N+]([O-])c1ccc(-c2c(-c3ccccc3)ncc3ccc(F)cc23)cc1", "Potency": "inconclusive: 79.4 µM [inhibitor, partial curve]"}, {"smiles": "CCOC(=O)c1ccccc1NC(=O)N(Cc1ccc(CC)cc1)Cc1cn[nH]c1-c1ccc(OC)cc1", "Potency": "inactive"}, {"smiles": "O=C1Cc2ccccc2C1=C1C=c2ccccc2=C1", "Potency": "inconclusive: 56.2 µM [inhibitor, partial curve, poor fit]"}, {"smiles": "O=c1[nH]c(=S)c2[nH]c(=S)n(-c3ccccc3)c2[nH]1", "Potency": "inconclusive: 31.6 µM [inhibitor, partial curve]"}, {"smiles": "COc1ccccc1NC(=O)C1=C(C)NC(SCC(=O)c2ccccc2)=C(C#N)C1c1ccco1", "note": "(stereo not drawn)", "Potency": "inconclusive: 28.2 µM [inhibitor, partial curve, poor fit]"}, {"smiles": "O=C(O)c1ccc(N2C(=O)CSC2=S)cc1", "Potency": "inactive"}, {"smiles": "CCOc1ccc(-n2cc(C(=O)N3CCN(C)CC3)c3cc(OC)c(OC)cc3c2=O)cc1", "Potency": "inconclusive: 56.2 µM [inhibitor, partial curve, poor fit]"}, {"smiles": "Cc1cccn2cc(-c3ccccc3)nc12", "Potency": "inactive"}, {"smiles": "CC(=O)N1CCN(c2ccc(NCc3ccc(C)cc3)cc2)CC1", "Potency": "inconclusive: 79.4 µM [inhibitor, single point]"}, {"smiles": "CCOC(=O)C1CCN(C(C(=O)NC2CCCCC2)c2ccc(OC)cc2)CC1", "note": "(stereo not drawn)", "Potency": "inconclusive: 39.8 µM [inhibitor, single point]"}, {"smiles": "COc1ccc(C(=O)CN2CCN(c3ccc(F)cc3)CC2)cc1", "Potency": "inconclusive: 50.1 µM [inhibitor, partial curve, poor fit]"}, {"smiles": "CSc1ccc(C(=O)C2CCCN(Cc3cccn3-c3cccnc3)C2)cc1", "note": "(stereo not drawn)", "Potency": "inconclusive: 79.4 µM [inhibitor, partial curve, poor fit]"}, {"smiles": "C/C(=N\\NC(=O)CSCc1ccc(Cl)cc1)c1ccc2c(c1)OCCO2", "Potency": "inactive"}, {"smiles": "Cc1cc(N2CCN(c3ccccc3)CC2)n2nnnc2n1", "Potency": "inconclusive: 50.1 µM [inhibitor, partial curve]"}, {"smiles": "COc1ccc(-c2nc(S(=O)(=O)c3ccc(C)cc3)c(N3CCCCC3)o2)cc1", "Potency": "inconclusive: 20 µM [inhibitor, full curve]"}]}]}
